From FireProtDB (doi:10.1093/protein/gzh076) come the findings set out here.

For the data set the following is noted: Homo sapiens, pH 7.3, H3PO4 25 mM, reversible: Yes; for Tm / unfolding enthalpy (van 't Hoff): Thermal.

By Tm is commonly meant the temperature at which the thermal transition is half complete. Consider “Fibroblast growth factor 1 wild type (sequence left out)”, for which, for the setting “20.15 °C, GdnHCl, Fluorescence”, the denaturant m value worked out at 4.87 kcal/mol/M, the “denaturant midpoint (higher = more stable)” value stood at 1.13 M and the unfolding free energy came out at 5.53 kcal/mol. In addition, where the note is “CD”, the Tm worked out at 40.7 °C and the “unfolding enthalpy (van 't Hoff)” value was determined as 67.7 kcal/mol. Moreover, where the note is “Fluorescence”, the Tm turned out to be 39.8 °C and the “unfolding enthalpy (van 't Hoff)” value worked out at 66.2 kcal/mol.
